Results taken from the supplement of paper PMC6531468.
This is one part of the list. Values come from read counts of a selection and are noisy. Each score is taken over the longer molecules that contain the sequence shown.

Legend:
Experiment in all cases: 6-mer SELEX enrichment z-score vs GST control; IMP3 is the RNA-binding protein IGF2BP3; higher = more enriched by binding
IMP3 KH1-4 = details: construct: KH1-4 (164-579); SELEX round: R4
Method: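 SELEX-seq with GST-tagged IMP3 KH1-4 (Pro164-Lys579) and an N40 RNA pool, round 4. 6-mer z-score of sequence-tag enrichment normalised to the corresponding GST SELEX round; RNA k-mers written as DNA (T for U).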

IMP3 RRM1-2 = details: construct: RRM1-2 (1-163); SELEX round: R2
Method: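 SELEX-seq with GST-tagged IMP3 RRM1-2 (Met1-Asn163) and an N40 RNA pool, round 2. 6-mer enrichment z-score normalised to GST SELEX. RNA written as DNA (T = U).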

IMP3 full-length = IMP3 full-length (UniProt O00425); details: construct: FL IMP3 (1-579); SELEX round: R4
Method: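 SELEX-seq with GST-tagged full-length IMP3 and an N40 RNA pool, round 4. Each 6-mer is scored as an enrichment z-score of sequence tags containing it, normalised to the matching GST SELEX round. RNA written as DNA (T = U).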

IMP3 KH1-2 = details: construct: KH1-2 (164-376); SELEX round: R4
Method: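 SELEX-seq with GST-tagged IMP3 KH1-2 (Pro164-Phe376) and an N40 RNA pool, round 4 (stringent 300/600 mM KCl washes). 6-mer z-score of sequence-tag enrichment normalised to the corresponding GST SELEX round; RNA k-mers written as DNA (T for U).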

IMP3 KH3-4 = details: construct: KH3-4 (377-579); SELEX round: R4
Method: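 SELEX-seq with GST-tagged IMP3 KH3-4 (Pro377-Lys579) and an N40 RNA pool, round 4. 6-mer z-score of sequence-tag enrichment normalised to the corresponding GST SELEX round; RNA k-mers written as DNA (T for U).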

IMP3 RRM1-2, sequence (chain, as listed by the source): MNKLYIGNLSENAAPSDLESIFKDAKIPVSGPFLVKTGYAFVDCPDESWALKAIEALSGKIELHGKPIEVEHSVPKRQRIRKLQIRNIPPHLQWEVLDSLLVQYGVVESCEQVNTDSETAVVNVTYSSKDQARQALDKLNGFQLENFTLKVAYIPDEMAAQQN
IMP3 KH1-2, sequence (chain, as listed by the source): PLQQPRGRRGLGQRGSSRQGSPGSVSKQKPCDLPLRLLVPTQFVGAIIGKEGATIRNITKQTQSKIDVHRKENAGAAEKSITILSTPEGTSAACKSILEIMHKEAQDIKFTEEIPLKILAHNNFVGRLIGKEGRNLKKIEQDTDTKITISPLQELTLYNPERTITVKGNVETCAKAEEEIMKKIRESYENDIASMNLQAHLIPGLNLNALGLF
IMP3 KH1-4, sequence (chain, as listed by the source): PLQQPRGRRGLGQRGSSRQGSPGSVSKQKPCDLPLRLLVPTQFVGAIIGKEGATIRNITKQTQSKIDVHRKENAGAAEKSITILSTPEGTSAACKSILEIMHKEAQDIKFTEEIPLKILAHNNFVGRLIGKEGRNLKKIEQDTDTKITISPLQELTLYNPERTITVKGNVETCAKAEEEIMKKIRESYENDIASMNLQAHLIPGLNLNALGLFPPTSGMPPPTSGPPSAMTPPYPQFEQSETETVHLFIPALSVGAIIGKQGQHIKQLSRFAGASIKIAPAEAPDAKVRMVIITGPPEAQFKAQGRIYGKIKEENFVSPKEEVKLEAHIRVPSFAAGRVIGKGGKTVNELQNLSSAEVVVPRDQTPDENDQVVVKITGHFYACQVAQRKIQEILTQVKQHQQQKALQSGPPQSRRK
UniProt O00425, sequence (O00425 whole entry): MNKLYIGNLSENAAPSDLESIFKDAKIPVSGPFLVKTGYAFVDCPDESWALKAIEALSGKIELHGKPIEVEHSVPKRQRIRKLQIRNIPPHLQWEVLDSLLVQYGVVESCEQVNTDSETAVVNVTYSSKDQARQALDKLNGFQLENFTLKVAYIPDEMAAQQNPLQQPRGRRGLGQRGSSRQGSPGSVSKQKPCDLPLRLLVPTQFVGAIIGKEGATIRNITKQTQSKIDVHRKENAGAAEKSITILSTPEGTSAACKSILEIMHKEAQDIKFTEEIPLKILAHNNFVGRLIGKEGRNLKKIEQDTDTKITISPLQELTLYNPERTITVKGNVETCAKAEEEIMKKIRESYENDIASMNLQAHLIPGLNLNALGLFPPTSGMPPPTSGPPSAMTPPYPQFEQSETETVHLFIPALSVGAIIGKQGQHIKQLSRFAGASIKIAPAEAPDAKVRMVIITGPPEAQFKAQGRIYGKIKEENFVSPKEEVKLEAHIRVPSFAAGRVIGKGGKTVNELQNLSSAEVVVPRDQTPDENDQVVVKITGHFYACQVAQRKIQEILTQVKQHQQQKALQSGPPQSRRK
IMP3 KH3-4, sequence (chain, as listed by the source): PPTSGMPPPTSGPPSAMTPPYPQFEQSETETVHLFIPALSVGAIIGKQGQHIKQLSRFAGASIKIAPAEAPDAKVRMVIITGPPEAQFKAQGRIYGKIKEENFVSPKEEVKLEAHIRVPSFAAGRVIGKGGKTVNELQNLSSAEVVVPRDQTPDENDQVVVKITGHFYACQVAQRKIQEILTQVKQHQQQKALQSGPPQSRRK

Sequence	6-mer SELEX enrichment z-score (IMP3 KH1-4)	6-mer SELEX enrichment z-score (IMP3 RRM1-2)	6-mer SELEX enrichment z-score (IMP3 full-length)	6-mer SELEX enrichment z-score (IMP3 KH1-2)	6-mer SELEX enrichment z-score (IMP3 KH3-4)
TCTAAA	-0.156	-0.628	-0.734	-0.191	0.012
CTAACG	-0.829	-0.659	-0.952	-0.887	-0.873
TACACC	-0.128	0.072	-0.328	-0.002	-0.773
CCCATC	-0.599	0.435	0.147	-0.458	-1.18
AAGCTC	-0.564	-0.236	-0.28	-0.493	-0.537
TAGCAC	0.473	0.291	0.469	0.335	0.119
TCAGGA	0.639	0.542	0.812	0.572	0.566
GTAATA	0.541	-0.446	-0.185	0.397	0.899
AAGCTG	-0.354	-0.508	-0.519	-0.463	-0.387
TTACAA	1.14	0.402	0.278	1.37	1.52
TGACCG	-0.643	-1.09	-0.944	-0.711	-0.986
TTAGTT	0.247	0.557	0.137	0.238	0.395
TCGCTA	0.433	0.13	0.097	0.376	0.349
ATACCT	-1.03	-0.433	-1.04	-1.03	-1.11
TTGGAT	0.148	0.303	0.011	0.095	0.309
ATGCTA	0.406	-0.171	-0.126	0.294	0.471
GGGAAG	0.82	-0.495	0.235	0.917	0.799
AAACGG	-0.792	-1.57	-0.883	-1.05	-0.308
ATCCTT	0.591	0.067	-0.137	0.453	0.293
GCCAAA	-1.2	-1.28	-1.2	-1.15	-1.08
ATTCTT	0.667	0.541	0.36	0.687	0.738
ACGCGG	0.087	-0.185	0.64	0.045	0.101
GCAATC	0.029	1.2	0.905	-0.034	-0.212
AACACC	-1.24	0.285	-1.06	-0.928	-1.98
GTTCGC	-0.072	0.281	0.032	-0.066	-0.177
TAGAGA	0.255	-0.7	-0.366	0.13	0.698
ACCCTT	-0.437	-0.35	-0.737	-0.512	-0.921
ATCGAG	-2.09	-0.096	-0.826	-1.94	-1.8

Sequence	6-mer SELEX enrichment z-score (IMP3 KH1-4)	6-mer SELEX enrichment z-score (IMP3 RRM1-2)	6-mer SELEX enrichment z-score (IMP3 full-length)	6-mer SELEX enrichment z-score (IMP3 KH1-2)	6-mer SELEX enrichment z-score (IMP3 KH3-4)
GAATTC	0.279	-0.135	-0.09	0.262	0.311
AAGTTA	0.255	-0.237	-0.447	-0.033	0.301
GTACTA	-0.312	-0.12	-0.21	-0.31	-0.237
TGGGCA	0.151	0.309	0.712	0.211	0.287
TCCTGG	-0.354	0.129	-0.144	-0.291	-0.389
CATATT	1.95	0.834	1.2	1.97	2.23
AGGCCG	0.43	-0.282	0.81	0.499	0.398
AGAACC	-1.04	-1.35	-1.43	-0.972	-1.29
ATATGG	1.23	0.177	0.426	0.933	1.52
CCAAAA	-3.37	-2.4	-3.63	-3.21	-3.41
TTTTGT	0.291	0.437	0.071	0.233	0.553
ATAACG	0.827	-0.636	-0.107	0.627	1.27
GTTTAC	-0.149	0.158	-0.159	-0.13	-0.049
CTGATA	0.482	-0.414	-0.195	0.506	0.569
CCTGAG	-1.92	-0.667	-1.54	-1.78	-1.86
TGTACC	-0.663	-0.074	-0.289	-0.717	-0.949
TTATAT	1.5	0.329	0.494	1.39	2.03
AAAGTT	-0.168	-0.578	-0.649	-0.437	-0.04
CGATAC	-0.254	-0.49	-0.086	-0.204	-0.3
CTTCAT	1.1	1.12	1.19	1.3	0.754
TGGTTA	-0.227	0.379	-0.181	-0.226	-0.084
GCTTGC	-0.051	0.327	0.129	0.012	-0.059
GAAAGC	-1.47	-1.18	-1.29	-1.39	-1.23
CCTCTG	-0.284	-0.054	-0.347	-0.277	-0.606
GAGTGT	-2.17	-0.079	-1.6	-2.06	-1.86
TGTTGC	-0.07	0.316	-0.172	-0.102	-0.076
ATGAGA	0.9	-0.8	-0.343	0.524	1.4
